# Source: paper PMC4336329 (PLoS ONE, 2015)
# Out of some 310,000 compounds screened, about 14,000 (4.5%) showed an effect of 50% or more. Effects have a minus sign here. This is one part of the list.
# Target: human ether-à-go-go-related gene (hERG) potassium channel (human, UniProt Q12809)
# Assay: primary screen, population patch clamp on CHO cells stably expressing hERG
# 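Further: peak tail current of the secondary pulse compared with the same well before compound.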
# Sequence of human ether-à-go-go-related gene (hERG) potassium channel (Q12809 whole entry, looked up): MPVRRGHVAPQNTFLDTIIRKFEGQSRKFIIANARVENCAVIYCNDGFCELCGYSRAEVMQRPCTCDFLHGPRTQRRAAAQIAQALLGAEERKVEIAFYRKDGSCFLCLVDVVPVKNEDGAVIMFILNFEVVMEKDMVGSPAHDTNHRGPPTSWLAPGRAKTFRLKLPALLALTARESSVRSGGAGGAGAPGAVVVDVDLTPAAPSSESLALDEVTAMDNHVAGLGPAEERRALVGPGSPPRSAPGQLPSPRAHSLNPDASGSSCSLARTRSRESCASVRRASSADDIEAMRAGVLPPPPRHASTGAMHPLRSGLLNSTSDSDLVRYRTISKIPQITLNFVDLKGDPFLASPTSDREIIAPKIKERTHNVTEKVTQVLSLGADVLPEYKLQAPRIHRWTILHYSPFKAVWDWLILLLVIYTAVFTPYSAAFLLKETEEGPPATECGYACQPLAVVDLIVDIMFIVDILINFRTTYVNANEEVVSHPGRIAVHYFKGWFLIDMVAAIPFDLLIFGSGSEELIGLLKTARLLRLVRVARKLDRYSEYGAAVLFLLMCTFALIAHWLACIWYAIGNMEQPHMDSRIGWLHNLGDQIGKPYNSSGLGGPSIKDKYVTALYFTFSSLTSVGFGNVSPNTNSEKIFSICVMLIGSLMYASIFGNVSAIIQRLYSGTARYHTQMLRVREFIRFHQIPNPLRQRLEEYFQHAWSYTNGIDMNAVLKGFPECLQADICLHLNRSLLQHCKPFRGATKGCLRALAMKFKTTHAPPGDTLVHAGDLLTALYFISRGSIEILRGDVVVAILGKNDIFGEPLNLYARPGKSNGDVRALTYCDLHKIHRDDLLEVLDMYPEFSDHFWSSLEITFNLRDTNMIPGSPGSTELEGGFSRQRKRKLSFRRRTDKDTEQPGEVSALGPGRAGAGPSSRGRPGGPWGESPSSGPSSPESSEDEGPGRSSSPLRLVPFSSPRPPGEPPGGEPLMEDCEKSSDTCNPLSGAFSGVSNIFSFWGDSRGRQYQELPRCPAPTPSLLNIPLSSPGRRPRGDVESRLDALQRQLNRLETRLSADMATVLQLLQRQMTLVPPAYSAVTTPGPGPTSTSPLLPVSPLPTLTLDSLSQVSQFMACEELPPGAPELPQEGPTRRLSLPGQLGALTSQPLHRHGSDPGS
row,Compound,"hERG current change (%, negative = inhibition) at 10uM [%]"
1,Cc1ccccc1C(C)NC(=O)COC(=O)Cn1cc(C(F)(F)F)ccc1=O (stereo not drawn),3.43
2,O=C(NC1CCCCCC1)C1c2ccccc2C(=O)N1Cc1cccs1 (stereo not drawn),-34.6
3,Cc1ccc2c(c1)N(C(=O)CCC(=O)N1CCC3(CC1)OCCO3)CCO2,3.09
4,COc1cc(NS(=O)(=O)c2ccc3c(c2)C(C)(C)C(=O)N3C)cc(OC)c1,-10
5,CCNC(=O)O/N=C1\CCCCC1c1ccc([N+](=O)[O-])cc1[N+](=O)[O-] (stereo not drawn),-4.84
6,COc1cccc(C(=O)/C=C/Nc2ccc(S(=O)(=O)Nc3ccc(C(C)=O)cc3)cc2)c1,21.4
7,O=C(CN1C(=O)NC2(CCCC2)C1=O)Nc1nc2ccc(F)cc2s1,-23.8
8,O=C(NCCN1CCOCC1)c1ccc(F)cc1,1.66
9,Cc1ccc(NC(=S)N2CCC(N(C)CC3CCCO3)CC2)c(C)c1 (stereo not drawn),-17.8
10,Cc1sc(NC(=O)c2ccccc2F)c(CN2CCCCC2)c1C,-0.974
11,CC(C)N1CCc2c(sc(NC(=O)Cc3ccccc3)c2C(N)=O)C1.Cl,-11.5
12,COc1ccc(NC(=S)NNC(=O)CNc2ccc(Cl)cc2)cc1,-5.15
13,CCCCS(=O)(=O)NC1=NCN(CCO)CN1,14.4
14,CCN(CC)CCN(C(=O)C1CCCCC1)c1nc2cc3c(cc2s1)OCO3.Cl,-14.6
15,COc1ccc(S(=O)(=O)N2CCOC2CNC(=O)C(=O)NCCc2ccc(OC)c(OC)c2)cc1 (stereo not drawn),-4.65
16,CCN(Cc1cc2cc(C)ccc2[nH]c1=O)C(=O)c1cccc([N+](=O)[O-])c1,-37.9
17,COc1ccc(CCNC(=O)CSc2nc(=O)n3cc(C)ccc3n2)cc1OC,12.9
18,O=C(CN1C(=O)S/C(=C\c2cccs2)C1=O)Nc1ccc(C(=O)O)c(O)c1,12.8
19,OC1CCCN(CC(O)COc2ccc(-c3ccccc3)cc2)C1 (stereo not drawn),-52.9
20,Cc1ccc(C(=O)NCCCNC(=O)COc2ccccc2Cl)cn1,-2.99
21,O=C(NCCc1ccccn1)C1CCN(S(=O)(=O)c2ccc3ccccc3c2)CC1,-22.9
22,Cc1nc2ccc(S(=O)(=O)NC(C(=O)N3CCn4c3nc3ccccc34)C(C)C)cc2s1 (stereo not drawn),3.89

row,Compound,"hERG current change (%, negative = inhibition) at 10uM [%]"
1,COc1ccc(CNC(=O)C(c2cccc(C)c2)N(C(=O)c2csnn2)C2CC2)cc1 (stereo not drawn),-38.8
2,CNC(=O)CSc1nc2ccccc2c(=O)n1C1CCCCC1,-14.6
3,COC(=O)/C(C#N)=C/c1cc(C)sc1C,17.7
4,C#CCOCCOCCOCCNc1nc(N2CCN(C(=O)C([C@@H](C)CC)n3cc(C(N)Cc4ccc(O)cc4)nn3)CC2)nc(N2CCN(C(=O)[C@H](CCC(=O)O)n3cc(C(N)Cc4ccc(O)cc4)nn3)CC2)n1.Cl (stereo partly drawn),14.6
5,O=C(CSC1=NS(=O)(=O)c2ccccc2N1)NCc1ccc(F)cc1,-2.68
6,CC1(C)Cc2c(sc(NC(=O)C(=O)NCCCN3CCOCC3)c2C#N)CO1,4.1
7,CNc1c(NC(=O)c2ccc3c(c2)OCO3)c(=O)oc2ccccc12,24.9
8,CC(C)(C)NC(=O)CSc1ccc(S(=O)(=O)N2CCOCC2)cn1,-1.22
9,O=C(/C=C/c1ccccc1Cl)Nc1cccc(S(=O)(=O)NC2=NCCCCC2)c1,-44.9
10,CN(c1ccc(C(=O)NCC2CCCO2)cc1)S(=O)(=O)c1ccccc1 (stereo not drawn),6.84
11,Cc1ccc(OCCN(C)C(=O)C2CCC(=O)N(CC3CCCCC3)C2)cc1 (stereo not drawn),-49.1
12,COc1ccccc1-n1c(-c2ccc(F)cc2)coc1=O,4.72
13,COc1cc(C2CC(=O)OC3=C2C(=O)CC(C)(C)C3)cc(OC)c1OC (stereo not drawn),16.8
14,OCC1(CO)COC(CCc2ccccc2)=N1,16.1
15,S=C(c1ccc(-c2cccc(Cl)c2)o1)N1CCCCC1,21.7
16,COC(=O)c1ccc(NC(=O)c2cccc(C)c2)cc1,-4.33
17,CC1CC(C)CN(CCCNC(=O)C2CCCN(S(=O)(=O)N3CC(C)CC(C)C3)C2)C1 (stereo not drawn),-61
18,Cc1ncc(CN2CCCCC2C(=O)Nc2ccc(Oc3ccccc3)nc2)cn1 (stereo not drawn),-0.713
19,O=C(Cn1ncc2c([nH]c3ccccc32)c1=O)N1CCc2ccccc2C1,14.5
20,CCCn1nnc(NC(=O)/C=C/c2ccccc2)n1,2.12
21,Cc1ccc(C(C(=O)NC(C)(C)C)N(Cc2cccs2)C(=O)c2csnn2)cc1 (stereo not drawn),-5.79
22,CCOC(=O)c1c(C)nsc1NCc1ccccc1,5.94

row,Compound,"hERG current change (%, negative = inhibition) at 10uM [%]"
1,COc1cccc(C(=O)Nc2ccc(F)cc2F)c1,1.76
2,COc1ccc(S[C@@H](CCN2CC[C@H](O)CCC2=O)c2ccccc2)cc1,-3.2
3,O=S(=O)(c1ccc2nc(-c3ccccc3)[nH]c2c1)N1CCN(c2ccc(Cl)cc2)CC1,-1.2
4,COc1cccc(NC(=O)Nc2ccncc2)c1,5.96
5,CCCSC1=C(C#N)C(c2cc(OC)ccc2OC)CC(=O)N1 (stereo not drawn),5.53
6,COc1ccc(CC(=O)Nc2nc(-c3cccnc3)cs2)cc1,6.34
7,CN(C)c1ccc(N2C(=O)CC(c3ccccc3)CC2=O)cc1,7.37
8,Cn1c(C(=O)OC(C(=O)NCC2CCCO2)c2cccnc2)cc2sccc21 (stereo not drawn),-11.8
9,O=C1c2cccc3c([N+](=O)[O-])ccc(c23)C(=O)N1O,11.4
10,Cc1cccc(C)c1NC(=O)C(C)N (stereo not drawn),-15.4
11,CCS(=O)(=O)N1CCC(C(=O)NCCc2ccc(OC)c(OC)c2)CC1,-8.71
12,Cc1cc(=O)n2nc(N3CCCC3C(=O)NCc3ccccn3)sc2n1 (stereo not drawn),12.7
13,Cc1nnc2n(-c3ccccc3)c(=O)c3ccccc3n12,7.19
14,Cc1ccc(-n2c(-c3ccc(Br)cc3)c[n+]3c2CCc2ccc4cccnc4c2-3)cc1.[Br-],-74.2
15,N#Cc1c(N2CCOCC2)nc(-c2ccco2)c2c1CCCC2,2.48
16,Cl.O=c1cc(-c2ccccc2)[nH]n1-c1nc2ccccc2[nH]1,7.02
17,CCCCNS(=O)(=O)c1ccc2nc(-c3cccnc3)cc(C(=O)NC(C)C)c2c1,16.7
18,CCC(=O)N1CCN(c2ccccc2NC(=O)Cc2ccc(Cl)cc2)CC1,-68.6
19,O=CN1CCN(C2CC(=O)N(c3ccc(Br)cc3)C2=O)CC1 (stereo not drawn),6.1
20,Cc1cccc(NS(=O)(=O)c2nnc(NC(=O)c3cccc(C)c3)s2)c1,2.44
21,Cc1cc(OCC(=O)OCC(=O)NCc2ccc3c(c2)OCO3)ccc1Cl,18.5
22,Cc1occc1-c1nnc(SCC(=O)N(C)c2ccccc2)n1C,-4.33

row,Compound,"hERG current change (%, negative = inhibition) at 10uM [%]"
1,CCC(=O)Nc1ccc(N2CCC(C)CC2)cc1,14.8
2,Clc1ccc2c(c1)nc1n2CCCC1,1.2
3,CCn1c(C)nc2cc(C(=O)NNC(=S)Nc3ccc(Cl)cc3Cl)ccc21,0.0231
4,COc1ccccc1/C=N/NC(=O)CO,16.4
5,CCc1ccc(OC)c(S(=O)(=O)NCCOc2ccccc2)c1,-5.9
6,CCN1CC(CN(C)Cc2nc(-c3ccco3)oc2C)CC1=O (stereo not drawn),10.4
7,Cc1nnc(SCc2ccccc2C#N)n1-c1ccccc1,4.24
8,Cc1c(C(=S)Nc2ccccc2)cnn1-c1ccccc1,-0.289
9,Cn1cc(CNC(=O)C2CCC(=O)N(Cc3ccc(Cl)cc3)C2)cn1 (stereo not drawn),-1.76
10,O=C(CCc1ccccc1)N1C[C@H]2C[C@@H](C1)c1cccc(=O)n1C2,-16
11,CCN(CC)c1ccc(C2CC(=O)Nc3cc(OC)c(OC)cc32)cc1 (stereo not drawn),-7.45
12,CCCOc1ccc(N2C(=O)CC(N3CC=C(c4ccccc4)CC3)C2=O)cc1 (stereo not drawn),8.23
13,CCOc1cc(/C=N/Nc2nn3cnnc3c3ccccc23)ccc1O,-8.74
14,COc1ccc(NC(=O)N2CCc3ccccc3C2)c(OC)c1,8.36
15,Cc1ccc(S(=O)(=O)N2CCOCC2)cc1NC(=O)COC(=O)c1cnccn1,5.4
16,COc1ccc(N2CCN(c3cnc4ccccc4n3)CC2)cc1,5.76
17,C[C@H]1O[C@@H](OC2CC[C@]3(C=O)[C@H]4CC[C@]5(C)[C@@H](C6=CC(=O)OC6)CC[C@]5(O)[C@@H]4CC[C@]3(O)C2)CC2OC(C)(C)OC21 (stereo partly drawn),0.41
18,CCc1ccc(CNC(=O)CCc2nnc(Cc3cccc(C(F)(F)F)c3)o2)nc1,-41.1
19,O=C(CCn1c(=O)oc2ccccc21)N1CCN(c2ccc(F)cc2)CC1,-58
20,COC(=O)c1ccccc1NC(=O)C1CCN(C(=O)c2cc(OC)cc(OC)c2)CC1,-37.6
21,CCOc1ncnc2c1[nH]c1ccccc12,9.71
